Results published in the supplement of paper PMC3724861.
The other results are listed elsewhere or left out.

tested on: T1, Caupolican (Caup) homeodomain DNA-binding domain; experiment: PBM E-score (8-mer, recovered from the published 9-mer minima) (E-score (dimensionless, -0.5 to 0.5)); Drosophila protein; higher = stronger relative binding preference, active = 0.31 or more
T1 sequence: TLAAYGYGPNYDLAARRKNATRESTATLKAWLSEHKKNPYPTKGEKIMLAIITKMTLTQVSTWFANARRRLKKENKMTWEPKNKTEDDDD
In short: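 Caup's homeodomain DNA-binding domain (residues 214-303) was made by in vitro transcription and translation and applied at 100 nM to custom-designed protein binding microarrays. Each value is an enrichment score that gives relative binding preference for a short DNA word, with higher meaning stronger. The 8-mer values were recovered from published 9-mer scores, each of which was the minimum of its two constituent 8-mer scores. A cutoff of 0.31 marks candidate sites.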

Sequence | PBM E-score
CAAAGCTA | inactive: 0.00033
AGCCGTGC | inactive: -0.133
ACTTAATA | inactive: 0.128
CCGCGAAA | inactive: -0.106
AGAATCGC | inactive: -0.0624
CACTATGC | inactive: 0.102
GAGATTTA | inactive: -0.0673
CGGCACAG | inactive: -0.169
AACACTAC | inactive: 0.222
ATGCGGAA | inactive: -0.0956
CCACACGG | inactive: -0.116
GTCGTACA | active: 0.352
AATCACGG | inactive: 0.0899
GATCTTCC | inactive: -0.1
AGTATCAC | inactive: 0.0862
TTCACCAA | inactive: -0.0154
GTCCAGGA | inactive: -0.00804
GCATTTCC | inactive: -0.0819
AGCGGCAT | inactive: -0.0552
AAATTTAT | inactive: 0.0898
CCGACTAG | inactive: -0.0872
CTTAATGA | inactive: -0.00974
GACGATAA | inactive: 0.0883
ATCGATGC | inactive: 0.0171
CCCGTCAC | inactive: -0.158

Sequence | PBM E-score
ATGAGGAG | inactive: -0.064
AGAAGCCA | inactive: -0.129
TCAGCGCA | inactive: -0.0633
ATGTGTGG | inactive: 0.0766
GGCGGTAC | inactive: -0.0735
GATGCGCA | inactive: -0.0837
AGGTTTGA | inactive: -0.052
AAGAGGAA | inactive: -0.0749
CTGGTAAG | inactive: -0.00689
ACATATTA | active: 0.33
ACTCGTTA | inactive: 0.0225
ATTAGTCC | inactive: 0.00589
AAGACACC | inactive: 0.0398
AAACTAAC | inactive: 0.194
TCTCTCAA | ≥ -0.00117
AGACAACA | active: 0.349
GGAGCGTA | inactive: -0.108
ACAAATAT | inactive: 0.273
AGACATCT | inactive: 0.172
AGCATCCT | inactive: -0.0345
AAGCGTTC | inactive: -0.0983
GATTCCCA | inactive: -0.0357
GCCTGGCA | inactive: -0.219
AATAAAAT | ≥ 0.206
ATCTCCAC | inactive: -0.106

Sequence | PBM E-score
AGCACCGG | inactive: -0.156
GGTGTAGA | inactive: 0.125
TCACTTCA | inactive: -0.0704
CGAAATAA | inactive: 0.0832
GCAACAAC | inactive: 0.205
ATGCAATA | inactive: 0.197
AGTCCCAC | inactive: -0.0729
CGAATTCC | inactive: -0.0156
GAGCATAC | inactive: 0.00685
ACAACCAA | inactive: 0.261
AAAGCTTA | inactive: 0.0133
AATAGTCC | inactive: 0.00729
GAACCCCC | inactive: -0.339
CCCTCAGA | inactive: -0.142
ATGCCTCC | inactive: -0.174
CGGACACA | inactive: 0.156
ACCGAAGT | inactive: 0.0279
GGGAGGAC | inactive: -0.145
CAATTAAA | inactive: 0.0678
CGACGTCA | inactive: -0.114
AGTAAACC | inactive: 0.0838
TTAGAGAA | ≥ 0.028
CACGGACG | inactive: 0.0061
CGCTTGCC | inactive: -0.161
CAGGATCC | inactive: -0.112

Sequence | PBM E-score
AGACTATA | inactive: 0.0802
AATTTCCT | inactive: -0.0222
CGGGGCAA | inactive: -0.114
CCTTCAAC | inactive: 0.0475
CCCGTACG | inactive: -0.0886
CCTGCCTC | inactive: -0.194
ACGACTGG | inactive: -0.0548
ATCGTCAT | ≥ 0.155
CACTAACA | inactive: 0.221
ACACGAAC | inactive: 0.257
CGTTTCAC | inactive: -0.0269
CATCACTC | inactive: 0.0545
TCAGCCCA | inactive: -0.145
GAAGCCTA | inactive: -0.122
AGTTGACG | inactive: 0.0598
GATCAAAC | inactive: 0.0445
AGTGAGCC | inactive: -0.0704
CTGTCACC | inactive: 0.0574
CATGTCAG | active: 0.413
CTTTAAAG | inactive: -0.0483
CTAGAATC | inactive: 0.0169
GCTTGGCC | inactive: -0.225
AGCGTTTA | inactive: 0.00077
CAACGCTG | inactive: -0.0959
TGCCTAAA | inactive: -0.0355

Sequence | PBM E-score
CCGCGGCC | inactive: -0.298
GACGGGCC | inactive: -0.291
TAACTAAA | inactive: 0.109
CGCTGCCG | inactive: -0.185
CAGAGTAC | inactive: 0.0122
ACGTCTTA | inactive: 0.0891
CACGCATA | inactive: 0.124
GCTAAAAA | inactive: 0.0111
AGAATCTG | inactive: 0.00045
GCATAGGA | inactive: 0.0385
ATCTTACC | inactive: -0.0254
ATCTCCCA | inactive: -0.0733
GCGCATAA | inactive: -0.0295
GCGCCGCA | inactive: -0.0847
ATTAGGTA | inactive: 0.125
AGCGCCCA | inactive: -0.309
GAAGTGAA | inactive: 0.0123
GTCCGCTA | inactive: -0.0553
ACTAGGTG | inactive: 0.0247
GTCCATAA | inactive: 0.0455
ATCCGGTC | inactive: -0.0543
CCGGTCAG | inactive: -0.142
AATATCCT | inactive: 0.0639
GACATGTA | active: 0.477
AAATGCCT | ≥ -0.019

Sequence | PBM E-score
CATCTAAA | inactive: 0.0293
GCCTAGCA | inactive: -0.183
ACTGCAAC | inactive: 0.0517
GCCGAAGA | inactive: -0.122
GGGGCAAA | inactive: -0.144
GACTGCTA | inactive: -0.036
CCGCCCAG | inactive: -0.252
ATTTAGCG | inactive: -0.00146
ACCACAAC | inactive: 0.175
GAGCGAAA | inactive: 0.00372
CGAGTCCA | inactive: -0.118
CCCAGACC | inactive: -0.195
CTCGGGCC | inactive: -0.183
CAATGGAC | inactive: 0.0656
ACTTAACT | inactive: 0.0819
CTGGGCTC | inactive: -0.186
ACTCGTAT | inactive: 0.175
AGAGACCC | inactive: -0.103
AGGCTGAA | inactive: -0.0844
GTGAGCGA | inactive: -0.119
AAGGGTGA | inactive: -0.11
CAGGAGCG | inactive: -0.152
CCGTCTCC | inactive: -0.216
GACCGTGC | inactive: -0.117
CACACTAA | inactive: 0.106

Sequence | PBM E-score
GGGACGGA | inactive: -0.244
AAGTACGA | inactive: 0.113
GACTGCTC | inactive: -0.135
GAAGCCGC | inactive: -0.212
CGGAACAG | inactive: 0.0672
TCCCACCA | ≥ -0.0958
GATAGCAC | inactive: -0.0686
CAGGCATA | inactive: 0.0146
AGAATCAG | inactive: 0.0451
GAGTAATC | inactive: 0.0247
GCTGGACC | inactive: -0.19
GTAAATCA | inactive: 0.22
AAAATGTT | inactive: 0.249
ATGTATCA | active: 0.321
AACCGATT | inactive: 0.014
CGAACCAC | inactive: -0.0921
AGTGCTCC | inactive: -0.279
GCATACAC | inactive: 0.208
AAATATAG | inactive: 0.125
GAGGCTCA | inactive: -0.247
AGACTACG | inactive: -0.0946
CGCTTAAA | inactive: -0.0559
CGACCCCG | inactive: -0.263
CATTTTGA | inactive: 0.0478
ATTATTCA | ≥ 0.173

Sequence | PBM E-score
TAAGGATA | inactive: 0.117
CCTTTATC | inactive: -0.0774
CTCCCAGC | inactive: -0.155
TAAGTGTA | inactive: 0.241
ATCTCTCA | inactive: -0.00117
GCTGGGAA | inactive: -0.146
ACTGCGGC | inactive: -0.171
CCGGGTAG | inactive: -0.086
CGTTCGCA | inactive: -0.00371
CGTAACGA | inactive: 0.00912
CGCACCCC | inactive: -0.157
TAACAGAA | inactive: 0.203
TTAGCCAA | inactive: -0.018
CGGAATAG | inactive: -0.0185
TATCTTCA | inactive: 0.0318
CGGTTGCC | inactive: -0.146
ACTGGAAT | ≥ 0.0439
CGCAGGGC | inactive: -0.236
GAGAGAAC | inactive: 0.0231
CACAAGCG | inactive: 0.0433
GCTCCTGA | inactive: -0.231
AATGTTAG | inactive: 0.253
AATCTACG | inactive: -0.022
GTGTGAGA | inactive: 0.00371
GGTGCTAA | inactive: -0.0585

Sequence | PBM E-score
AATCAATG | inactive: 0.155
CTCACAAA | inactive: 0.00316
CGCGTGGC | inactive: -0.286
AATTCAGG | inactive: 0.0422
ACGGCCAC | inactive: -0.212
ATGGTTGA | inactive: 0.0905
CACAACTA | inactive: 0.164
TAACAATA | inactive: 0.268
CAGTGTAC | inactive: 0.207
ATGTTTGG | inactive: 0.229
AAAGTTGA | inactive: 0.0111
CCTCTACA | inactive: 0.0804
GGACGAAA | inactive: -0.0239
GATCTTGA | inactive: 0.101
AAGCGCCG | inactive: -0.202
CCAACAAC | inactive: 0.178
AGGCCACC | inactive: -0.222
TCTTGGAA | ≥ 0.0432
AGAATAAT | inactive: 0.101
TAAAAGCA | inactive: -0.0301
AGCATTTC | inactive: 0.0508
CACTTAAA | inactive: 0.0401
CTTCGGAA | inactive: -0.0828
ATACTTCG | ≥ 0.111
